According to EPA's CvTdb concentration-time database:
Further values from the same series stand in other lists.

How the values were obtained:
Assay in all cases: concentration in plasma after dosing
[1] = tested on: Rat; details: dosed: Methyleugenol, 150 mg/kg, oral, Male, F344/N
[2] = tested on: Rat; details: dosed: Methyleugenol, 75 mg/kg, oral, Male, F344/N
[3] = tested on: Rat; details: dosed: Methyleugenol, 75 mg/kg, oral, Male, F344/N; remark: listed apart in the source
[4] = tested on: Rat; details: dosed: Methyleugenol, 37 mg/kg, oral, Male, F344
[5] = tested on: Rat; details: dosed: Methyleugenol, 150 mg/kg, oral, Male, F344
[6] = tested on: Rat; details: dosed: Methyleugenol, 150 mg/kg, oral, Male, F344/N; remark: listed apart in the source
[7] = tested on: Rat; details: dosed: Methyleugenol, 150 mg/kg, oral, Male, F344; remark: listed apart in the source
[8] = tested on: Rat; details: dosed: Methyleugenol, 75 mg/kg, oral, Female, F344/N
[9] = tested on: Rat; details: dosed: Methyleugenol, 150 mg/kg, oral, Female, F344
[10] = tested on: Rat; details: dosed: Methyleugenol, 150 mg/kg, oral, Male, F344/N; remark: listed apart in the source
[11] = tested on: Rat; details: dosed: Methyleugenol, 75 mg/kg, oral, Male, F344/N; remark: listed apart in the source
[12] = tested on: Rat; details: dosed: Methyleugenol, 150 mg/kg, oral, Female, F344/N
[13] = tested on: Rat; details: dosed: Methyleugenol, 150 mg/kg, oral, Female, F344/N; remark: listed apart in the source
[14] = tested on: Rat; details: dosed: Methyleugenol, 150 mg/kg, oral, Male, F344/N; remark: listed apart in the source
[15] = tested on: Rat; details: dosed: Methyleugenol, 150 mg/kg, oral, Male, F344/N; remark: listed apart in the source
[16] = tested on: Rat; details: dosed: Methyleugenol, 75 mg/kg, oral, Female, F344
[17] = tested on: Rat; details: dosed: Methyleugenol, 150 mg/kg, oral, Female, F344; remark: listed apart in the source
[18] = tested on: Rat; details: dosed: Methyleugenol, 150 mg/kg, oral, Male, F344/N; remark: listed apart in the source
[19] = tested on: Rat; details: dosed: Methyleugenol, 75 mg/kg, oral, Female, F344/N; remark: listed apart in the source
[20] = tested on: Rat; details: dosed: Methyleugenol, 150 mg/kg, oral, Male, F344/N; remark: listed apart in the source
[21] = tested on: Rat; details: dosed: Methyleugenol, 150 mg/kg, oral, Male, F344; remark: listed apart in the source

C=CCc1ccc(OC)c(OC)c1 [Methyleugenol]
concentration in plasma ([1]; 1.5 h): 0.697 µg/mL | concentration in plasma ([1]; 5 h): 0.916 µg/mL | concentration in plasma ([2]; 0.5 h): 0.481 µg/mL | concentration in plasma ([2]; 12 h): 0.00827 µg/mL | concentration in plasma ([3]; 2 min): 0.337 µg/mL | concentration in plasma ([3]; 5 h): 0.167 µg/mL | concentration in plasma ([4]; 1 h): 0.16 µg/mL | concentration in plasma ([4]; 2 h): 0.05 µg/mL | concentration in plasma ([5]; 0.5 h): 2.47 µg/mL | concentration in plasma ([5]; 1.5 h): 1.17 µg/mL | concentration in plasma ([6]; 0.25 h): 0.641 µg/mL | concentration in plasma ([6]; 24 h): 0.00886 µg/mL | concentration in plasma ([7]; 5 min): 2.4 µg/mL | concentration in plasma ([7]; 6 h): 0.659 µg/mL | concentration in plasma ([8]; 20 min): 0.202 µg/mL | concentration in plasma ([8]; 8 h): 0.0361 µg/mL | concentration in plasma ([9]; 5 min): 4.8 µg/mL | concentration in plasma ([9]; 6 h): 0.248 µg/mL | concentration in plasma ([10]; 5 min): 0.424 µg/mL | concentration in plasma ([10]; 6 h): 0.704 µg/mL | concentration in plasma ([11]; 1 h): 0.0674 µg/mL | concentration in plasma ([11]; 4 h): 0.181 µg/mL | concentration in plasma ([12]; 2 h): 0.504 µg/mL | concentration in plasma ([12]; 5 h): 2.11 µg/mL | concentration in plasma ([13]; 0.25 h): 1.92 µg/mL | concentration in plasma ([13]; 12 h): 0.0288 µg/mL | concentration in plasma ([14]; 0.5 h): 2.52 µg/mL | concentration in plasma ([14]; 8 h): 0.183 µg/mL | concentration in plasma ([15]; 5 min): 0.96 µg/mL | concentration in plasma ([15]; 8 h): 0.255 µg/mL | concentration in plasma ([16]; 5 min): 4.64 µg/mL | concentration in plasma ([16]; 6 h): 0.059 µg/mL | concentration in plasma ([17]; 0.5 h): 1.85 µg/mL | concentration in plasma ([17]; 1.5 h): 0.488 µg/mL | concentration in plasma ([18]; 10 min): 1.95 µg/mL | concentration in plasma ([18]; 12 h): 0.0561 µg/mL | concentration in plasma ([19]; 1.5 h): 0.235 µg/mL | concentration in plasma ([19]; 8 h): 0.02 µg/mL | concentration in plasma ([20]; 1 h): 1.52 µg/mL | concentration in plasma ([20]; 3 h): 0.597 µg/mL | concentration in plasma ([21]; 1 h): 2.79 µg/mL | concentration in plasma ([21]; 2 h): 0.945 µg/mL
